# Reference: article PMC6919601, “Identification of Plasmodium dipeptidyl aminopeptidase allosteric inhibitors by high throughput screening” (PLoS ONE, 2019)
# Among all 110,000 compounds or so, about 230 (0.21%) showed an effect of 50% or more. The list shows a part of the results.
# Target: DPAP1 (Plasmodium falciparum, UniProt Q8IIJ9)
# Experiment: primary screen, percent inhibition; read by cleavage of a fluorogenic dipeptide substrate; higher = more effect of the substance
# Design: species or system P. falciparum D10 trophozoite lysates; single well
# 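Also: 30 min substrate incubation versus DMSO and 10 µM JCP410 controls.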
# DPAP1, sequence (Q8IIJ9 whole entry, looked up): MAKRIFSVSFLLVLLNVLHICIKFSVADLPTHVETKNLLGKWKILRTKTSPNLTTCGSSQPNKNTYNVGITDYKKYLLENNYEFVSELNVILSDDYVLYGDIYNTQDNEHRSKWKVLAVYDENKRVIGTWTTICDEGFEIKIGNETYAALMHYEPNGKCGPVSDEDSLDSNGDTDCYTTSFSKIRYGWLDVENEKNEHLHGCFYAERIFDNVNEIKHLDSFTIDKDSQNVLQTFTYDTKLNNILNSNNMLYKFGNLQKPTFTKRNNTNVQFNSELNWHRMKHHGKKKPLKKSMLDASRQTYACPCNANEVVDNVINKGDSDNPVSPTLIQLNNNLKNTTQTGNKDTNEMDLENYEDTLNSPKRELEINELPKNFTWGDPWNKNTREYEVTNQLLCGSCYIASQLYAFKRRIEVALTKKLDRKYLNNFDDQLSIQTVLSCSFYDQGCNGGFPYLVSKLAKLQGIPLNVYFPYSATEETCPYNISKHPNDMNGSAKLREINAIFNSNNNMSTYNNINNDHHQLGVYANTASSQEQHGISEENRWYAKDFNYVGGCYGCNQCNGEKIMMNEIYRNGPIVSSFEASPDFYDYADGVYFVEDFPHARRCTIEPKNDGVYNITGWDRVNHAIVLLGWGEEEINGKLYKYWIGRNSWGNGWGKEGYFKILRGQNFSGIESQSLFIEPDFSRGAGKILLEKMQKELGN
row,Compound,% Inhibition @ 10 uM [%]
1,Cc1ccc(SCC2=NNC(=O)C2)cc1,3.39
2,Cn1c2ccccc2c2cnn(CC(=O)NCCN3CCOCC3)c(=O)c21,-3.9
3,c1coc(CNc2nc3ccccc3[nH]2)c1,-3.33
4,O=C(CNC(=S)N(Cc1ccccc1)Cc1ccccc1F)NCc1ccco1,4.47
5,C=CCN1CCN(c2ccncc2S(=O)(=O)N2CCOCC2)CC1,-2.74
6,CCCOC(=O)C1=C(C)N(CC)C(=O)NC1c1ccccc1Cl (stereo not shown),0.997
7,O=C1OC(c2ccc(-c3ccccc3)cc2)=N/C1=C\c1cccnc1,1.97
8,CCC(CC)N1CCN(c2ccc3nc(C(=O)NCc4ccc(C)cc4)ccc3n2)CC1,-5.13
9,CC(=O)c1[nH]nnc1NC(=O)c1ccccc1,-5.9
10,CN(Cc1ccccc1)C(=O)c1cc(-c2cccc(O)c2)on1,-1.84
11,Clc1cccc(OCCCN2CCCCC2)c1,3.95
12,CC(C)NC(C)C(=O)c1ccc2ccccc2c1 (stereo not shown),-1.78
13,CCCCN(C(=O)c1ccc(F)cc1)C1=CC2CCC(C1)N2C (stereo not shown),-3.64
14,COc1ccc(-n2nnc(-c3nsc(NC(=O)c4ccc(C)cc4)n3)c2C)cc1OC,-0.48
15,C=CCNc1nc(Nc2ccc(F)cc2)nc(OC(C(F)(F)F)C(F)(F)F)n1,13.5
16,NC(=O)C1CCN(C(=O)c2ccc3c(c2)sc2nc(-c4ccc(F)cc4)cn23)CC1,31.5
17,CCCc1nnc(NC(=O)Cc2coc3cc(C)ccc23)s1,1
18,Cc1[nH]c2ccccc2c1CN1CCC(Cc2ccccc2)CC1,-1.77
19,CCOc1ccc(C(=O)NCCc2csc3nc(-c4ccc(C)cc4)nn23)cc1OCC,1.43
20,O=C(COc1cccc(NC(=O)c2cccs2)c1)c1ccc(F)cc1,-4.66
21,COc1ccc(C(=N)NOC(=O)CC(c2ccccc2)c2ccccc2)cc1OC,-2.98
22,Cc1ccc(-c2nnc(SCC(=O)N3CCC(C)CC3)o2)cc1C,1.3

row,Compound,% Inhibition @ 10 uM [%]
1,O=C1c2ccccc2C2(O)Nc3nc(O)nc(O)c3C12O (stereo not shown),0.0265
2,COc1ccc2nc(NC(=O)C3CCN(S(=O)(=O)c4cccnc4)CC3)sc2c1,-7.85
3,CCOC(=O)c1cnn(-c2ccccc2)c1NC(=O)CSc1nnc2c3ccccc3n(C)c2n1,-2.39
4,CC(C)CC(=O)Nc1ccc(-c2nc3cc(Cl)ccc3o2)cc1,-1.57
5,Cc1ccc(C(=O)CC(C(=O)O)c2cn(C)c3ccccc23)cc1 (stereo not shown),2.22
6,Nc1ccccc1CC(c1c[nH]c2ccccc12)c1c[nH]c2ccccc12,-4.58
7,COc1cc(OC)c(NS(=O)(=O)c2ccc3ccccc3c2)cc1Cl,-5.29
8,CN1C(=O)C(=C(N)NC(=O)c2ccccc2)C(=O)N(C)C1=O,1.01
9,CCC(=O)/N=C(/Nc1ccccc1)Nc1nc(C)cc(C)n1,-1.3
10,Cn1cc(NC(=O)NCc2ccc(F)cc2)c2ccccc2c1=O,-2.14
11,Cc1ccccc1C1CC(=O)NC2=C1C(=O)CC(c1cccs1)C2 (stereo not shown),0.8
12,Cc1nc2nc(-c3ccc(Cl)cc3Cl)nn2c(C)c1CCC(=O)NCC1CCCO1 (stereo not shown),-2.45
13,COc1ccc(CCNC(=O)c2cc3c(s2)CSC3)cc1OC,-1.3
14,CC1(C)CC2=Nc3ccccc3NC(c3cccc(O)c3)C2=C(O)C1 (stereo not shown),-2.56
15,COc1ccc(CN2C(=O)C3C(c4ccccc4)OC4(C(=O)c5ccccc5C4=O)C3C2=O)cc1 (stereo not shown),-3.23
16,Cc1c(CC(=O)N2CCCC2)c(=O)oc2cc3occ(C(C)(C)C)c3cc12,-2.79
17,CC(C)c1cc(C(C)C)c(S(=O)(=O)N2CCOCC2)c(C(C)C)c1,6.61
18,Cc1c2cnn(CC(=O)N3CCC(C)CC3)c(=O)c2c(C)n1Cc1ccccc1,-2.17
19,COc1ccccc1-c1noc(CSc2nc(C)cc(O)n2)n1,3.93
20,O=C(CCS(=O)(=O)c1cccc2nonc12)Nc1nccs1,1.26
21,OC1=C2C(=Nc3nc4ccccc4n3C2c2cccs2)CCC1 (stereo not shown),-9.03
22,COC(=O)C1=C(C)OC(N)=C(C#N)C1c1cc(C)cc(Cn2ccc(C(F)(F)F)n2)c1C (stereo not shown),0.032

row,Compound,% Inhibition @ 10 uM [%]
1,CC1(C)Cc2nc3sc4c(NCCc5ccccc5)ncnc4c3cc2CO1,-1.1
2,COc1ccc(S(=O)(=O)Nc2c(C)nc3sccn3c2=O)cc1,3.5
3,Cc1cccc2sc(N(CCCN(C)C)C(=O)CN3C(=O)c4ccccc4C3=O)nc12,-1.07
4,O=C(NCCCN1CCCC1=O)c1nc(-c2ccc(Cl)cc2)n2c1CCCCC2,-1.96
5,O=C(O)CSCC(=O)c1c[nH]c2ccccc12,-9.95
6,Cc1cccc(CCNC(=O)c2cc(O)nc3ccc(Br)cc23)c1,1.62
7,Cc1ccc(NC(=O)NC2CCCCC2)cc1Cl,-0.414
8,CC1C(O)CCN(C)C1c1ccccc1 (stereo not shown),-0.128
9,Cc1cccc(OCCCCc2c(C)n[nH]c2C)c1C,-1.64
10,Cc1cccc(OC(C)c2nc(-c3ccncc3)no2)c1 (stereo not shown),-4.75
11,COc1ccccc1C(=O)NC1(C(F)(F)F)C(=O)N(Cc2ccccc2)C(C)=C1C(C)=O (stereo not shown),3.93
12,COc1ccccc1-n1c(C)c(C(C)=O)c2cc(O)ccc21,-6.88
13,CC(=O)Nc1ccc2c(c1)C1C=CCC1C(c1ccc(Cl)cc1Cl)N2 (stereo not shown),4.57
14,Cc1ccc(OCC(=O)NCc2nc(-c3ccc(C)cc3)no2)cc1,-1.22
15,CCN(CC)S(=O)(=O)c1nnc(NC(=O)c2cccc3ccccc23)s1,-7.53
16,CCOC(=O)C1=C(CNC2CC(C)(C)NC(C)(C)C2)NC(=O)NC1c1ccc2c(c1)OCO2 (stereo not shown),2.57
17,Cc1ccc(Cc2c(C)nc3nc(SCC(=O)NCCN4CCCCC4C)nn3c2C)cc1 (stereo not shown),3.49
18,OC(c1ccccc1)(c1ccccc1)c1c[nH]cn1,-0.582
19,C=Cc1ccc(Cn2c(C(=O)O)c(CNCC(C)c3ccccc3)c3ccc(C)cc32)cc1 (stereo not shown),-0.537
20,Cn1ncc2c(N3CCN(Cc4ccc5c(c4)OCO5)CC3)ncnc21,4.15
